Hit rate of the full screen: of about 150,000 compounds, about 540 (0.36%) showed an effect of 50% or more. Some of the results follow.
test system: Plasmodium falciparum; assay: Primary screen in NF54 nanoGlo assay, in single point, at 2uM, 72h; a lower Z score goes with more inhibition; assay type: functional, Erythrocyte; conditions: timepoint 72 hour

SMILES | % Inhibition | Z score
CCN(CC)C(=O)CC[C@@H]1CNC(=O)[C@@H]2C[C@H](NC(=O)c3ccco3)CN12 | 14% | -1.64
CCc1nc(COc2cccnc2C)cs1 | -9% | 1.23
CC(=O)c1cccc(S(=O)(=O)Oc2ccc3c(c2)ncn3C)c1 | -21% | 4.06
CCC(CC)NC(=O)c1nnc2n1CCCC[C@H]2C1CCOCC1 | 18% | -2.23
CC(NC(=O)OC(C)(C)C)C1CN(C(=O)C2=NN(c3ccccc3)C(C(N)=O)C2)CCO1 (stereo not drawn) | 3% | -0.39
CCOc1ccc(S(=O)(=O)Nc2ccc(C(=O)N(CC)CC(=O)NCc3cccs3)cc2)cc1 | -7% | 1.46
Cc1ccc(Oc2ccc(CN(C)C)cc2)nn1 | -10% | 1.9
CN1CCN(S(=O)(=O)c2ccccc2CNCc2cnc(C3CC3)o2)CC1 | -2% | 0.39
CC[C@H](NS(=O)(=O)c1ccco1)c1c(C)noc1C | -8% | 0.99
O=C(CNC(=O)C1CCN(CC(=O)NC2CCCc3ccccc32)C1)NC1CCCc2ccccc21 (stereo not drawn) | 5% | -0.79
COc1nc(C)c(C(=O)NC[C@H]2CCN(CC(C)C)C2)s1 | -9% | 1.45
Cn1c(C(=O)NC[C@H]2CCCN3CCCC[C@@H]23)cc2ccc(Cl)cc21 | -14% | 1.8
CCC1(CNC(=O)CC[C@H](C)N2CCN(C)CC2)CCC1 | -6% | 1.14
COc1cccc(-c2cccc(CN3CCOC[C@@H](O)C3)c2)c1 | -3% | 0.48
COc1cccc(S(=O)(=O)N2CCCC[C@H]2c2nnc(-c3ccncc3)[nH]2)c1 | -17% | 3.24
COCCNC(=O)c1ccc2nc(C(C)C)oc2c1 | -2% | 0.29
Cc1cc(C(=O)N2CC(CN3C(=O)COC3=O)C2)nn1C | -4% | 0.73
Clc1cc(CNC2CC2)ccc1OCc1ccccc1 | -4% | 0.51
N#Cc1ccncc1N1CCC=C(F)C1 | -7% | 0.88
Cc1nc(C)c(CN[C@H]2CCN(C3CCCCC3)C2)o1 | 7% | -1.35
CCOc1ccccc1CN1C[C@@H](n2cnnn2)C[C@H]1C(=O)NCc1ccc(C)cc1 | -9% | 1.23

SMILES | % Inhibition | Z score
COC(=O)[C@@H]1CCN(Cc2nccn2C(C)C)c2ccccc21 | -11% | 0.96
Cc1cc(CN2CCN(CCO)CC2)c(C)c(CN2CCC[C@H](C)C2)c1 | 4% | -0.56
CCCc1nc(NCc2cc(CC(C)C)no2)no1 | -4% | 0.47
CCCOCC(=O)N1C[C@H](c2ccc(C)o2)[C@@H](N(C)C)C1 | -17% | 1.73
CN(Cc1cc(C[C@H]2CNCC[C@H]2CC(=O)N2CCc3ccccc3C2)no1)c1ccccc1 | 23% | -2.64
Cc1ccc([C@H]2CN(C3CCOCC3)C[C@@H]2NS(=O)(=O)C2CC2)o1 | 9% | -1.22
Nc1cc(Cl)c(S(=O)(=O)Nc2ccccc2)cc1S(=O)(=O)Nc1ccccc1 | -6% | 0.82
Cc1cccc(Cl)c1S(=O)(=O)N1CCCc2occc2C1 | -12% | 1.54
O=C(Nc1cc(-c2nc3ccccc3s2)c(Cl)cc1Cl)c1cccnc1 | 1% | -0.12
Nc1cc(N2CCC(Oc3ccc4c(c3)CCC4)(C(=O)O)CC2)nc(N)n1 | 3% | -0.33
CN1CC[C@@]2(CCCN(C(=O)c3cccc(-c4ccc(C(N)=O)o4)c3)C2)C1 | -10% | 1.5
CC(C)Cc1nc(-c2ccc(-n3ccnc3)cc2)n(CCCO)n1 | 3% | -0.61
CCc1nnc([C@@H]2CCCN2C(=O)NCc2ccc(F)cc2)[nH]1 | -5% | 0.68
CC1CCC(C)N(C(=O)c2csc(S(=O)(=O)N3CCc4ccccc4C3)c2)C1 (stereo not drawn) | -5% | 0.91
CCOC(CN1CCC(C#N)CC1)OCC | -9% | 1.09
O=C(Cc1cccs1)N1CCCn2cc(-c3ccccc3F)nc21 | -5% | 0.9
CN(CC(=O)O)c1ncc(CN2CCC[C@H](C(C)(C)C)CC2)cn1 | -5% | 0.77
Clc1cccc(-c2n[nH]c3c2CN(Cc2cccc4c2OCO4)CC3)c1 | 11% | -1.6
O=C(NCc1ccc2c(c1)OCO2)[C@@H]1CCN(c2ccc(F)cc2F)C1=O | -11% | 2.09
CC(C)(C)OC(=O)N1CCC(CC(=O)NCc2nccnc2-c2ccoc2)CC1 | 21% | -2.64
Cc1cc(N2C[C@@H](C)[C@](C)(C(=O)O)C2)nc(C2CC2)n1 | -11% | 1

SMILES | % Inhibition | Z score
CCOCCc1nnc([C@H]2CCO[C@@H]2c2ccccc2)[nH]1 | 5% | -0.83
Cc1ccc(NC(=O)Cn2cnc3nc4c(cc3c2=O)CCCC4)cc1 | -3% | 0.49
Cc1nc2c(s1)[C@@H](NCCCNC(=O)c1occc1C)CCC2 | 8% | -1.07
CC(C)CCNS(=O)(=O)c1cccc(Br)c1 | -19% | 2.97
Cn1nc(-c2ccc(F)cc2)cc1C(=O)NCC1CCN(C(=O)c2cc3ccccc3o2)CC1 | -5% | 0.57
O=C1NC(=O)c2cc(S(=O)(=O)Nc3cccc4[nH]ncc34)ccc21 | 3% | -0.49
CCN1C[C@]2(CCCN(S(=O)(=O)c3c(C)nn(C)c3Cl)C2)CCC1=O | 0% | 0.01
CCNC(=O)NCCOC(=O)c1cccc(C)c1Cl | 37% | -1.23
O=S1(=O)CC[C@H](c2nnc(C3(c4cccc(Br)c4)CCOCC3)o2)C1 | -2% | 0.33
N#Cc1ncn(CCOCCOc2ccccc2)n1 | -18% | 2.49
CN(C)C(=O)N(CCNC(=O)Cc1cccc(Cl)c1)C1CCOCC1 | -2% | 0.35
O=C(NCCC1=CCCCC1)C(F)(F)C(F)(F)C(=O)NCCC1=CCCCC1 | -5% | 0.69
Cc1ccc(F)c(CC(=O)N2C[C@H](c3cnn(C)c3)C(C)(C)C2)c1 | 7% | -1.04
CC(=O)NCc1csc([C@H]2CCCN(S(=O)(=O)c3ccc(C)c(C)c3)C2)n1 | -10% | 1.19
Cn1nc(C(=O)Nc2cccc(F)c2)c(=O)c2ccccc21 | -7% | 0.86
CN(C(=O)[C@@H]1CCCN1C(=O)c1ccccn1)c1ccccc1F | 3% | -0.49
COC(=O)C1CCN2C(=O)N(c3cc(C)c(Cl)c(C)c3)C(=O)C2C1 (stereo not drawn) | -11% | 1.6
Cc1ccc([C@H](CNC(=O)COc2ccccc2C)N2CCN(C)CC2)o1 | 3% | -0.44
Cc1cc(O)nc(N(C)Cc2ccccc2)n1 | -8% | 1.45
O=C1CN(S(=O)(=O)c2ccc(C(=O)NCCc3c[nH]c4ccccc34)cc2)CCN1 | -8% | 0.82
NC(=O)NCC(=O)N(Cc1cccc(Br)c1)CC1CC1 | -11% | 1.75

SMILES | % Inhibition | Z score
CCc1nc(C)ncc1C(=O)N1CCCCCCC1 | 1% | -0.1
Cn1cnc2c(N3CCN(CC4CC4)CC3)nccc21 | 3% | -0.43
Cc1cc(Nc2ccc(F)cc2C)n2nc(-c3ccco3)nc2n1 | 5% | -0.71
O=C(c1cc2c(s1)CCC2)N1CCCc2ccccc21 | 1% | -0.11
CC(C)(C)OC(=O)Oc1cccc(CC#N)c1 | -15% | 2.79
Cc1ccc2c(c1)c(-c1ccccc1)c(-c1ccccc1)n2C[C@@H](O)CNCCCO | 1% | -0.17
CCCN(CC(=O)Nc1cc(N2CCN(C(=O)NC(C)C)CC2)ccc1Cl)C(=O)C1CCC1 | -12% | 1.84
CCO[C@H](c1noc(Cc2csc(C3CC3)n2)n1)C1CCCC1 | -1% | 0.19
Cc1nc2cc(C(=O)N(CCN(C)C)C[C@H]3CCCO3)ccc2s1 | -21% | 1.94
Cc1[nH]ncc1CNC(=O)[C@H]1CCN(c2cnn(Cc3ccccc3)c(=O)c2)C1 | 6% | -0.93
CCCc1nc(C(=O)NC[C@H]2CCCN(C(=O)c3n[nH]c(=O)[nH]3)C2)cs1 | -8% | 1.07
CC(=O)N1CCc2cc(S(=O)(=O)Oc3cc(C)ccc3C)ccc21 | -6% | 1.06
CC(C)C1CN(C(=O)CC2COC(=O)C2)C1C(C)C (stereo not drawn) | -4% | 0.5
O=C1NCC[C@@H]1NS(=O)(=O)CC1CCCC1 | -15% | 1.93
CCOC(=O)N1CCC(NC2CC3CCC2C3)CC1 (stereo not drawn) | 4% | -0.56
CC1(C)[C@H](CNc2ncnc3[nH]ncc23)C1(F)F | -7% | 0.73
C[C@H]1CNCCN1C(=O)c1cc(Oc2ccccc2)ccn1 | -11% | 1.57
CCC[C@H]1CCc2ccccc2N1C(=O)c1ccc(=O)n(C)c1 | 5% | -0.49
COc1cccc(CO[C@@H]2CN(C(=O)CCc3cnccn3)CC(=O)N(CC(C)C)C2)c1 | 0% | 0.01
CC(C)c1cc(CN(C)C(=O)Cn2cnc3ccccc3c2=O)on1 | 13% | -2.27
COc1ccc(CN2CCC[C@H](c3nnc(CN4CCCC4)n3C)C2)cc1 | 0% | -0.05
